Measurements published in PubChem BioAssay AID651820 (National Center for Advancing Translational Sciences (NCATS), 2012).
The campaign covered roughly 340,000 compounds. About 12,000 (3.5%) were called active. Inconclusive results, whose numbers are uncertain, are shown with a selection of clear calls. The call rests on the fitted dose curve; in most records, active means well fitted inhibition curve with a large enough effect; inconclusive means small, poorly fitted or top-dose-only effect, or another doubt; inactive means no such curve, though single readings can be large or run the other way. Potencies of inconclusive entries are left out as doubtful fits.

Experiment: qHTS Assay for Inhibitors of Hepatitis C Virus (HCV)
Conditions: Huh7.5.1 HCVcc-Cre (HCVcc is cell-culture hepatitis C virus) infection, luciferase reporter, 44 h; series mostly up to 41.8 µM
Summary of the method: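 Infectious HCVcc-Cre (~0.5 moi) was added to cells just after compound, with cells seeded 4 h earlier at 1,000 per well. Luciferase activity after 44 h culture reported infection; substrate was incubated 15 min at room temperature before reading.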
Potency means the concentration at half of the fitted maximal effect; tags describe the fitted curve by direction and shape.

Row | SMILES | Potency
1 | COc1ccccc1NC(=O)COc1ccc(C(=O)NCc2ccccc2)cc1OC | inconclusive [inhibitor, partial curve]
2 | COC(=O)c1c(NC(=O)CCl)sc(C(=O)N2CCOCC2)c1C | inconclusive [inhibitor, single point]
3 | CC(C)(C)c1cc(Cl)c(O)c(NC(=S)NC(=O)c2cccnc2)c1 | inconclusive [inhibitor, partial curve]
4 | CCCCCNC(=O)c1ccc2c(=O)n(CC3CCCO3)c(=O)[nH]c2c1 (configuration not stated) | inconclusive [inhibitor, partial curve, poor fit]
5 | CC(C)(C)OC(=O)C[C@H]1C/C=C\C[C@H](CC(=O)NCCO)C(=O)NC[C@H](c2ccccc2)OC1=O | inconclusive [inhibitor, single point]
6 | O=C(COc1ccccc1[N+](=O)[O-])Nc1ccc(NC(=O)c2cc3ccccc3o2)cc1 | active: 11.2 µM
7 | CCOC(=O)c1cc(-c2ccc(OC)cc2OC)nn1-c1ccc(C(=O)O)cc1 | inactive
8 | Cc1cc(=O)oc2c(C)c(OCC(=O)N3CCN(c4cccc(Cl)c4)CC3)ccc12 | inconclusive [inhibitor, single point]
9 | COc1ccc(C(CNC(=O)c2oc3ccc(F)cc3c2C)N2CCCCC2)cc1 (configuration not stated) | active: 11.2 µM
10 | CCCC(=O)Nc1ccc(Cl)c(NC(=O)C(C)(C)C)c1 | inconclusive [inhibitor, single point]
11 | CC(Oc1ccc(C(C)(C)C)cc1)c1ccnc2nc(/N=C/N(C)C)nn12 (configuration not stated) | inconclusive [inhibitor, single point]
12 | COc1ccc(N2CCC(CNC(=O)Nc3ccccc3)C2)cc1 (configuration not stated) | inconclusive [inhibitor, single point]
13 | CCOC(=O)N1CCN(c2c(N3CC=C(c4ccccc4)CC3)c(=O)c2=O)CC1 | inconclusive [inhibitor, single point]
14 | CC1=CC(C)(C)Nc2ccc(OC(=O)C(C)N3C(=O)c4ccccc4C3=O)cc21 (configuration not stated) | inconclusive [inhibitor, single point]
15 | CC(=O)OCCCN1C(=O)c2ccc(Br)cc2C1=O | inactive
16 | c1cc2ccc3ccc(-n4cnnn4)c4ccc(c1)c2c34 | inconclusive [inhibitor, partial curve]
17 | N#Cc1c(NCCN)nc(-c2ccccc2)c2c1CCCC2 | inconclusive [inhibitor, full curve]
18 | O=C(CN1CCN(C(=O)c2ccccc2)CC1)Nc1cc(S(=O)(=O)N2CCCC2)ccc1Cl | inconclusive [inhibitor, single point]
19 | Cc1ccc(N2C(=O)N(CC(=O)Nc3cc(Cl)ccc3C)C(=O)C2C)cc1 (configuration not stated) | inconclusive [inhibitor, full curve, poor fit]
20 | O=C(COC(=O)c1cc(=O)[nH]c2ccccc12)NC1CCCCCCC1 | inconclusive [inhibitor, single point]
21 | CC(Sc1ncccn1)C(=O)NC1(C#N)CCCCC1 (configuration not stated) | inactive

Row | SMILES | Potency
22 | COc1cccc(Cn2nc3c4cc(F)ccc4n(Cc4ccc(F)cc4)cc-3c2=O)c1 | inactive
23 | Cc1cc(C)nc(SCc2ccc(C(=O)N/N=C/C3CCCCC3)cc2)n1 | inconclusive [inhibitor, partial curve]
24 | Cc1ccc(C(=O)N/C(=C\c2ccco2)C(=O)NCCN2CCCCC2)cc1C | inconclusive [inhibitor, single point]
25 | CC(C)(C)c1ccccc1NC(=O)c1cc(-c2ccncc2)nc2ccccc12 | active: 11.2 µM
26 | CC(C)n1cc(/C=N/NC(=O)COc2cccc3cccnc23)c2ccccc21 | inconclusive [inhibitor, single point]
27 | Cc1ccc(NC(=O)c2cc(S(=O)(=O)N3CCOCC3)cs2)cc1 | inconclusive [inhibitor, partial curve]
28 | Cc1c(C(=O)OCc2ccccc2)[nH]c2c1C(=O)CC(c1ccco1)C2 (configuration not stated) | inconclusive [inhibitor, full curve]
29 | CCN(CC)S(=O)(=O)c1cccc(NC(=O)c2cc(-c3cccs3)nn2-c2ccccc2)c1 | inconclusive [inhibitor, partial curve]
30 | O=C(CNC(=O)C12CC3CC(CC(C3)C1)C2)N1CCN(S(=O)(=O)c2cccs2)CC1 | inconclusive [inhibitor, single point]
31 | COc1cc(C(C)=O)ccc1OCC(=O)Nc1ccccc1N1CCCCC1 | inconclusive [inhibitor, single point]
32 | COc1ccc(OC)c(CCNC(=O)c2ccc3c(c2)N(Cc2ccccc2)CCS3)c1 | inconclusive [inhibitor, partial curve]
33 | O=C(NCC1CCCO1)c1cc2n(n1)C(C(F)(F)F)CC(c1ccc(F)cc1)N2 (configuration not stated) | inconclusive [inhibitor, full curve, poor fit]
34 | Cc1cc(C(=O)Nc2ccc(N3CCOCC3)c3nonc23)ccc1[N+](=O)[O-] | inactive
35 | O=C(NCC(=O)N1CCCCCCC1)c1ccccc1Br | inactive
36 | Cc1ccc2nc(NC(=O)COC(=O)c3cccnc3)sc2c1 | inactive
37 | COc1ccc(CCNC(=O)c2ccc(CS(=O)(=O)c3ccc(Cl)cc3)o2)cc1OC | active: 12.6 µM
38 | CN1CCN(c2nc(NCCOC34CC5CC(CC(C5)C3)C4)nc(OCC(F)(F)F)n2)CC1 | inconclusive [inhibitor, partial curve]
39 | C=CCNC1=C(Cl)C(=O)c2ccccc2C1=O | inconclusive [inhibitor, partial curve]
40 | O=S(=O)(/N=C(/Nc1ccccc1)c1ccccc1O)c1ccccc1 | inactive
41 | CC[C@@H](C)[C@@H](C(=O)N1CCN(C(=O)OC(C)(C)C)CC1)n1cc(CCCCNC(=O)OC(C)(C)C)nn1 | inconclusive [inhibitor, single point]
42 | Cc1ccc(-n2nc(C)c3c2C(Br)C(C)(C)CC3=O)nc1 (configuration not stated) | inactive
